Data set [1] deals with Mec-vector. The data set is described as follows: Cytotoxicity in vitro (CellTiter-Glo viability), Mec-vector. As to conditions: read-out: EC50 (nM), cytotoxicity in vitro; Mec-vector (CLL), 72 hours. The protocol: (§1) Cells were cultured in log phase growth and distributed into 96-well plates. Each cell line was plated at a slightly different cell density, ranging from 5×10^3 to 50×10^4 cells/well. Cells in duplicate were incubated with 3-fold serial dilution of a particular immunoconjugate (10, 3.33, 1.11, 0.37, 0.12, 0.041, 0.014, and 0.0045 μM) for 72 hours at 37° C. and 5% CO2. After treatment, cells were incubated with an equal volume of CellTiter-Glo® reagent (Promega Inc.) for 15 minutes at room temperature and viability was determined by a luminometer. Curves and EC50 values were generated in GraphPad Prism using a sigmoidal dose response non-linear regression fit.
(§2) Cells were grown and distributed into 96-well plates as described in Example 5. Cells in duplicate were incubated with 3-fold serial dilution of a particular immunoconjugate (660, 220, 73.3, 24.4, 8.14, 2.71, 0.91, and 0.3 nM) for 72 hours at 37° C. and 5% CO2. In some experiments, cells were incubated with an immunoconjugate for 96 hours instead of 72 hours (values highlighted with “*”). After treatment, cell viability was determined as described in Example 5. Cell surface ROR1 expression was assessed by quantitative flow cytometry and ROR1 expression was characterized as MFI>30 or MFI<30 (MFI: mean fluorescent intensity).
(§3) The MEC1 cell line, which is derived from B-chronic lymphocytic leukemia in prolymphocytoid transformation, was transfected with either an expression vector encoding human ROR1 or a control vector, and stable cell lines were created using selection media containing G418.
Background: ATP-based viability assays read luminescence as a measure of living cells.

Data set [2] relates to Mec-ROR. In words: Cytotoxicity in vitro (CellTiter-Glo viability), Mec-ROR. As to conditions: read-out: EC50 (nM), cytotoxicity in vitro; Mec-ROR (CLL), 72 hours. The protocol: as §1, §2, §3
The subject of data set [3] is Jeko-1. In words: Cytotoxicity in vitro (CellTiter-Glo viability), Jeko-1. In kind it is cell-based, human.
Data set [4] has as its system Mino. In words: Cytotoxicity in vitro (CellTiter-Glo viability), Mino. Format: cell-based, human. Conditions: Mino (MCL), 72 hours.
Data set [5] relates to MDA-MB-468. In words: Cytotoxicity in vitro (CellTiter-Glo viability), MDA-MB-468. Conditions: read-out: EC50 (nM), cytotoxicity in vitro; MDA-MB-468 (TNBC), 72 hours. The protocol:
ROR1 binding by these conjugates was tested in cell culture to define the potency of various linker-cytotoxic agent combinations. Three different types of cancer cell lines were tested: B-lymphoma cell-lines TMD-8, HBL-1, and DOHH2; triple negative breast cancer cell lines HCC1187, MDA-MB-468, Bt549; and ovarian cancer cell lines A2008, TOV112D, JHOM1, and SKOvr3.
as §1, §2

Data set [6] has as its system MCF-7. The data set is described as follows: Cytotoxicity in vitro (CellTiter-Glo viability), MCF-7. Format: cell-based, human.
The subject of data set [7] is Jeko-1 MCL xenograft. The data set is described as follows: Jeko-1 human MCL xenograft model (study 7). In kind it is in vivo, mouse. As to conditions: 1 mg/kg ADC-N, ADC-P, ADC-R; 5 mg/kg ADC-A, ADC-L, ADC-M, ADC-S, ADC-T; IV Q4D. The protocol:
Jeko-1 (MCL) cells were engrafted subcutaneously into mice. When tumor size reached 100 mm^3, the mice were randomized into nine groups, 9 mice/group. The groups were vehicle control; 1 mg/kg ADC-N, ADC-P or ADC-R; or 5 mg/kg ADC-A, ADC-L, ADC-M, ADC-S, or ADC-T. The mice were dosed IV q4d.

Data set [8] deals with MDA-MB-231. The data set is described as follows: Cytotoxicity in vitro (CellTiter-Glo viability), MDA-MB-231. Format: cell-based, human. As to conditions: MDA-MB-231 (TNBC), 72 hours.
The test system of data set [9] is H460. The data set is described as follows: Cytotoxicity in vitro (CellTiter-Glo viability), H460. In kind it is cell-based, human. Conditions: H460 (NSCLC), 72 hours.
Where [10] appears, read: Jeko-1 (MCL), 72 hours, read-out: EC50 (nM), cytotoxicity in vitro.
Setting [11] is: MCF-7 (Breast), 96 hours (values marked *).

Where two headings read alike, the source gives them in different places.

B1: ADC-L: Ab1 conjugated via MAL-DPR-VC-PAB to MMAE (conjugate)
heavy: QVQLQESGPGLVKPSQTLSLTCTVSGYAFTAYNIHWVRQAPGQGLEWMGSFDPYDGGSSYNQKFKDRLTISKDTSKNQVVLTMTNMDPVDTATYYCARGWYYFDYWGHGTLVTVSS[skipping human IgG1 constant region]
light: DIVMTQTPLSLPVTPGEPASISCRASKSISKYLAWYQQKPGQAPRLLIYSGSTLQSGIPPRFSGSGYGTDFTLTINNIESEDAAYYFCQQHDESPYTFGEGTKVEIKRTVAAPSVFIFPPSDEQLKSGTASVVCLLNNFYPREAKVQWKVDNALQSGNSQESVTEQDSKDSTYSLSSTLTLSKADYEKHKVYACEVTHQGLSSPVTKSFNRGEC
modifications: non-natural residues
With B1, the EC50 in data set [1] amounted to 535 nM; in [2] it was 192 nM; in data set [3] (setting [10]), 81.1 nM; in [4] it was 20.5 nM; in data set [5] it was 142 nM; in data set [6] (setting [11]), 232 nM. Moreover, the “tumor growth / average tumor size (interim results, day 14)” value in data set [7] is given as “Significant tumor regression”.

B2: ADC-R (conjugate)
heavy: QVQLQESGPGLVKPSQTLSLTCTVSGYAFTAYNIHWVRQAPGQGLEWMGSFDPYDGGSSYNQKFKDRLTISKDTSKNQVVLTMTNMDPVDTATYYCARGWYYFDYWGHGTLVTVSS[skipping human IgG1 constant region]
light: DIVMTQTPLSLPVTPGEPASISCRASKSISKYLAWYQQKPGQAPRLLIYSGSTLQSGIPPRFSGSGYGTDFTLTINNIESEDAAYYFCQQHDESPYTFGEGTKVEIKRTVAAPSVFIFPPSDEQLKSGTASVVCLLNNFYPREAKVQWKVDNALQSGNSQESVTEQDSKDSTYSLSSTLTLSKADYEKHKVYACEVTHQGLSSPVTKSFNRGEC
Regarding B2, the EC50 turned out to be 183 nM in [1]; 44.6 nM in data set [2]; 53.3 nM in [3] (setting [10]); 15 nM in data set [4]; 44.3 nM in data set [5]; 203 nM in data set [8]. For the same molecule, the EC50 is 167 nM in [6] (setting [11]) and 191 nM in data set [9]. In addition, the “tumor growth / average tumor size (interim results, day 14)” value in [7] is listed as “inhibition of tumor growth”.

B3: ADC-H (conjugate)
heavy: QVQLQESGPGLVKPSQTLSLTCTVSGYAFTAYNIHWVRQAPGQGLEWMGSFDPYDGGSSYNQKFKDRLTISKDTSKNQVVLTMTNMDPVDTATYYCARGWYYFDYWGHGTLVTVSS[skipping human IgG1 constant region]
light: DIVMTQTPLSLPVTPGEPASISCRASKSISKYLAWYQQKPGQAPRLLIYSGSTLQSGIPPRFSGSGYGTDFTLTINNIESEDAAYYFCQQHDESPYTFGEGTKVEIKRTVAAPSVFIFPPSDEQLKSGTASVVCLLNNFYPREAKVQWKVDNALQSGNSQESVTEQDSKDSTYSLSSTLTLSKADYEKHKVYACEVTHQGLSSPVTKSFNRGEC
For B3, the EC50 in data set [3] was determined as 170 nM.

B4: ADC-O: Ab1 conjugated via MAL-C2-Gly3-EDA to PNU-159682 (conjugate)
heavy: QVQLQESGPGLVKPSQTLSLTCTVSGYAFTAYNIHWVRQAPGQGLEWMGSFDPYDGGSSYNQKFKDRLTISKDTSKNQVVLTMTNMDPVDTATYYCARGWYYFDYWGHGTLVTVSS[skipping human IgG1 constant region]
light: DIVMTQTPLSLPVTPGEPASISCRASKSISKYLAWYQQKPGQAPRLLIYSGSTLQSGIPPRFSGSGYGTDFTLTINNIESEDAAYYFCQQHDESPYTFGEGTKVEIKRTVAAPSVFIFPPSDEQLKSGTASVVCLLNNFYPREAKVQWKVDNALQSGNSQESVTEQDSKDSTYSLSSTLTLSKADYEKHKVYACEVTHQGLSSPVTKSFNRGEC
B4: the EC50 in [1] was 296 nM; in data set [2], 116 nM; in data set [3] (setting [10]), 71.7 nM; in data set [4], 28 nM; in data set [5], 85.8 nM; in data set [8], 782 nM. The EC50 in [6] (MCF-7 (ER+/PR+/HER2− Breast), 72 hours) was determined as 12.7 nM; in data set [9] it was 365 nM.

(Values after patent USRE50631E1, “ROR1 antibody immunoconjugates” (VelosBio Inc., priority 2017, dated 2025).)
